Assay results from article PMC5892938.
The list shows a part of the results. At the low end of the ranking the order means little.

Each sequence was assayed against GST-SBP-SLBP (stem-loop binding protein) (UniProt Q14493) (assay: targeted RNA Bind-n-Seq). Conditions: RBNS binding buffer: 25 mM Tris pH 7.5, 150 mM KCl, 3 mM MgCl2, 0.1% Tween, 0.5 mg/mL BSA, 1 mM DTT; 27 nM protein, 750 pM RNA pool; temperature not stated; high values mean tight binding.
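Also: DESeq read counts versus GST-SBP nonspecific binding control pulldown.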

Sequence | binding signal (log2 fold change)
GGUCACGUCUCAAUCAACUCUUUUCCCAGGGAAACCCCUGGUAUGUUCAACAGCUCGCAGUCAAG | -0.171
GGUCACGUCUCAAUCAACUCUACUCCAGGAGUUUACUCCUGUUAUCUCAACAGCUCGCAGUCAAG | -0.0853
GGUCACGUCUCAAUCAACUCAUUUUCCAGGGAAAGCCCUGGCGUAUUCAACAGCUCGCAGUCAAG | -0.0777
GGUCACGUCUCAAUCAACUCAGUUCCAGGAGUUUACUCCUGCUUUCUCAACAGCUCGCAGUCAAG | -0.155
GGUCACGUCUCAAUCAACUCAUUCUCCAGGGAAAACCCUGGUUAUCUCAACAGCUCGCAGUCAAG | -0.296
GGUCACGUCUCAAUCAACUCUUCUCCCAGGGAAACCCCUGGUAUACUCAACAGCUCGCAGUCAAG | 0.235
GGUCACGUCUCAAUCAACUCUUCUUCAGGAGUUUACUCCUGCAUACUCAACAGCUCGCAGUCAAG | -0.154
GGUCACGUCUCAAUCAACUCAAUCCCAGGAGUUUCCUCCUGUUAACUCAACAGCUCGCAGUCAAG | 0.193
GGUCACGUCUCAAUCAACUCUUUCUCCAGGGAAACCCCUGGCUAUUUCAACAGCUCGCAGUCAAG | 0.0567
GGUCACGUCUCAAUCAACUCAUCCCCCAGGGAAACCCCUGGUAUUUUCAACAGCUCGCAGUCAAG | -0.203
GGUCACGUCUCAAUCAACUCUUCCCCCAGGGAAACCCCUGGUAUACUCAACAGCUCGCAGUCAAG | -0.299
GGUCACGUCUCAAUCAACUCUUCCUCAGGAGUUUUCUCCUGUUUUGUCAACAGCUCGCAGUCAAG | 0.00931
GGUCACGUCUCAAUCAACUCAGUCCCAGGAGUUUUCUCCUGUAAAUUCAACAGCUCGCAGUCAAG | -0.139
GGUCACGUCUCAAUCAACUCUUUCCCCAGGGAAACCCCUGGUUUUUUCAACAGCUCGCAGUCAAG | -0.156
GGUCACGUCUCAAUCAACUCUCAAGAGGGGGGGAAAACCCCUUUACCCUCAAAUUCAACAGCUCGCAGUCAAG | -0.113
GGUCACGUCUCAAUCAACUCUUUUCCAGGAGUUUCCUCCUGUUAUCUCAACAGCUCGCAGUCAAG | 0.0905
GGUCACGUCUCAAUCAACUCUUUCCCAGGAGUUUCCUCCUGUAAACUCAACAGCUCGCAGUCAAG | -0.0833
GGUCACGUCUCAAUCAACUCUACUCCCAGGGAAACCCCUGGCAUUCUCAACAGCUCGCAGUCAAG | 0.0636
GGUCACGUCUCAAUCAACUCUAUCUCCAGGGAAAGCCCUGGCUAUUUCAACAGCUCGCAGUCAAG | 0.044
GGUCACGUCUCAAUCAACUCUAUUUCAGGAGUUUCCUCCUGUUAUCUCAACAGCUCGCAGUCAAG | 0.00375
GGUCACGUCUCAAUCAACUCUUCUUCCAGGGAAAACCCUGGCGUAUUCAACAGCUCGCAGUCAAG | -0.129
GGUCACGUCUCAAUCAACUCAUCGCCAGGAGUUUACUCCUGUAUAUUCAACAGCUCGCAGUCAAG | 0.0924
GGUCACGUCUCAAUCAACUCAUCUUCCAGGGAAAUCCCUGGCUAAUUCAACAGCUCGCAGUCAAG | 0.0358
GGUCACGUCUCAAUCAACUCCAUAGAGGGGGGGAAAACCCCUUUGCCCUCAAAAUCAACAGCUCGCAGUCAAG | -0.455
GGUCACGUCUCAAUCAACUCUUUCCCCAGGGAAAACCCUGGCAUUCUCAACAGCUCGCAGUCAAG | 0.0161

Sequence | binding signal (log2 fold change)
GGUCACGUCUCAAUCAACUCUAGUCCAGGAGUUUACUCCUGCAAAUUCAACAGCUCGCAGUCAAG | 0.00147
GGUCACGUCUCAAUCAACUCAUCGUCAGGAGUUUACUCCUGCAAUCUCAACAGCUCGCAGUCAAG | 0.0262
GGUCACGUCUCAAUCAACUCAUGUCCAGGAGUUUACUCCUGCAAUUUCAACAGCUCGCAGUCAAG | -0.0865
GGUCACGUCUCAAUCAACUCUUUCUCCAGGGAAAUCCCUGGCUAUGUCAACAGCUCGCAGUCAAG | -0.013
GGUCACGUCUCAAUCAACUCAAGGUCAGGAGUUUACUCCUGUUAAUUCAACAGCUCGCAGUCAAG | -0.0524
GGUCACGUCUCAAUCAACUCCAUAGAGGGGGGGAAAACCCCUUUGCCCUCACCAUCAACAGCUCGCAGUCAAG | -0.0249
GGUCACGUCUCAAUCAACUCUUCCUCCAGGGAAAUCCCUGGUAUUUUCAACAGCUCGCAGUCAAG | 0.157
GGUCACGUCUCAAUCAACUCCCUCGAGGGGGGGAAAACCCCUUUACCCUCAACAUCAACAGCUCGCAGUCAAG | 0.141
GGUCACGUCUCAAUCAACUCAUCUUCAGGAGUUUACUCCUGCAUAUUCAACAGCUCGCAGUCAAG | 0.164
GGUCACGUCUCAAUCAACUCACAAGAGGGGGGGAAAACCCCUUUGCCCUCAUCCUCAACAGCUCGCAGUCAAG | 0.34
GGUCACGUCUCAAUCAACUCUACUCCCAGGGAAAGCCCUGGUUUUCUCAACAGCUCGCAGUCAAG | -0.162
GGUCACGUCUCAAUCAACUCAAAAGAGGGGGGGAAAACCCCUUUACCCUCAAUAUCAACAGCUCGCAGUCAAG | -0.163
GGUCACGUCUCAAUCAACUCUAUCUCCAGGGAAAACCCUGGCAAUCUCAACAGCUCGCAGUCAAG | -0.0204
GGUCACGUCUCAAUCAACUCCAUCGAGGGGGGGAAAACCCCUUUACCCUCCAAAUCAACAGCUCGCAGUCAAG | -0.171
GGUCACGUCUCAAUCAACUCUACUUCCAGGGAAACCCCUGGCAUUUUCAACAGCUCGCAGUCAAG | -0.214
GGUCACGUCUCAAUCAACUCAAUUUCCAGGGAAAUCCCUGGCUUUCUCAACAGCUCGCAGUCAAG | -0.119
GGUCACGUCUCAAUCAACUCAAUUUCAGGAGUUUUCUCCUGCAAACUCAACAGCUCGCAGUCAAG | 0.00694
GGUCACGUCUCAAUCAACUCUUCGCCAGGAGUUUCCUCCUGUAUAUUCAACAGCUCGCAGUCAAG | 0.189
GGUCACGUCUCAAUCAACUCCAUAGAGGGGGGGAAAACCCCUUUGCCCUCAAUAUCAACAGCUCGCAGUCAAG | -0.0597
GGUCACGUCUCAAUCAACUCUACUUCCAGGGAAACCCCUGGCUUUCUCAACAGCUCGCAGUCAAG | -0.139
GGUCACGUCUCAAUCAACUCUCACGAGGGGGGGAAAACCCCUUUGCCCUCAUCAUCAACAGCUCGCAGUCAAG | -0.103
GGUCACGUCUCAAUCAACUCUCUAGAGGGGGGGAAAACCCCUUUGCCCUCGUUUUCAACAGCUCGCAGUCAAG | -0.397
GGUCACGUCUCAAUCAACUCCAAAGAGGGGGGGAAAACCCCUUUGCCCUCGAAUUCAACAGCUCGCAGUCAAG | 0.0245
GGUCACGUCUCAAUCAACUCGUUUUCAGGAGUUUUCUCCUGUAUAUUCAACAGCUCGCAGUCAAG | -0.152
GGUCACGUCUCAAUCAACUCUUUUUCCAGGGAAAACCCUGGUAUAUUCAACAGCUCGCAGUCAAG | -0.252

Sequence | binding signal (log2 fold change)
GGUCACGUCUCAAUCAACUCCUUAGAGGGGGGGAAAACCCCUUUACCCUCCUAUUCAACAGCUCGCAGUCAAG | -0.419
GGUCACGUCUCAAUCAACUCUUUUCCCAGGGAAAUCCCUGGUUUAUUCAACAGCUCGCAGUCAAG | -0.0322
GGUCACGUCUCAAUCAACUCCCUCGAGGGGGGGAAAACCCCUUUACCCUCCAAUUCAACAGCUCGCAGUCAAG | -0.339
GGUCACGUCUCAAUCAACUCUACUUCAGGAGUUUUCUCCUGUAAACUCAACAGCUCGCAGUCAAG | -0.0052
GGUCACGUCUCAAUCAACUCUUUCCCCAGGGAAACCCCUGGUUAUGUCAACAGCUCGCAGUCAAG | 0.261
GGUCACGUCUCAAUCAACUCAACUUCCAGGGAAAGCCCUGGCUUACUCAACAGCUCGCAGUCAAG | -0.101
GGUCACGUCUCAAUCAACUCAGUCCCAGGAGUUUUCUCCUGCUAUCUCAACAGCUCGCAGUCAAG | 0.276
GGUCACGUCUCAAUCAACUCAUUCCCAGGAGUUUCCUCCUGCAAAUUCAACAGCUCGCAGUCAAG | 0.0651
GGUCACGUCUCAAUCAACUCAGUUCCAGGAGUUUUCUCCUGCAUUUUCAACAGCUCGCAGUCAAG | -0.0439
GGUCACGUCUCAAUCAACUCAAUCUCCAGGGAAAACCCUGGCAUACUCAACAGCUCGCAGUCAAG | -0.0798
GGUCACGUCUCAAUCAACUCUAUUCCCAGGGAAAACCCUGGCUAUCUCAACAGCUCGCAGUCAAG | -0.352
GGUCACGUCUCAAUCAACUCAAAAGAGGGGGGGAAAACCCCUUUGCCCUCAUCCUCAACAGCUCGCAGUCAAG | -0.128
GGUCACGUCUCAAUCAACUCUUCUCCCAGGGAAACCCCUGGCAAUUUCAACAGCUCGCAGUCAAG | -0.0153
GGUCACGUCUCAAUCAACUCUAUCUCAGGAGUUUACUCCUGCUUUCUCAACAGCUCGCAGUCAAG | 0.117
GGUCACGUCUCAAUCAACUCCAUAGAGGGGGGGAAAACCCCUUUACCCUCCCAAUCAACAGCUCGCAGUCAAG | 0.282
GGUCACGUCUCAAUCAACUCUUCUCCAGGAGUUUACUCCUGCUAUUUCAACAGCUCGCAGUCAAG | -0.0584
GGUCACGUCUCAAUCAACUCUAUUUCAGGAGUUUUCUCCUGUAUACUCAACAGCUCGCAGUCAAG | 0.176
GGUCACGUCUCAAUCAACUCUACUCCAGGAGUUUCCUCCUGUAAUCUCAACAGCUCGCAGUCAAG | 0.0869
GGUCACGUCUCAAUCAACUCCAUAGAGGGGGGGAAAACCCCUUUACCCUCAAAAUCAACAGCUCGCAGUCAAG | 0.222
GGUCACGUCUCAAUCAACUCAUUUCCAGGAGUUUACUCCUGUAAUCUCAACAGCUCGCAGUCAAG | -0.0425
GGUCACGUCUCAAUCAACUCUUCCCCAGGAGUUUACUCCUGUAAUUUCAACAGCUCGCAGUCAAG | 0.117
GGUCACGUCUCAAUCAACUCAUCUCCAGGAGUUUUCUCCUGCUUAUUCAACAGCUCGCAGUCAAG | -0.0887
GGUCACGUCUCAAUCAACUCAGUUUCAGGAGUUUCCUCCUGCUUUUUCAACAGCUCGCAGUCAAG | 0.0447
GGUCACGUCUCAAUCAACUCAUCCUCAGGAGUUUUCUCCUGCAUAUUCAACAGCUCGCAGUCAAG | 0.138
